Measured values published in publication PMC8365426.
No constants are given. Whether binding was seen depends on the method and setting. Binding seen in cells or lysates may run through a third protein. Some binding calls cover weakened binding; strength is not graded here. For part of these data: Where a sequence is shown, tags or fusion partners need not be part of it.

The chains behind the UniProt entries cited, without tags or fusion partners. Residues count along the entry.
UniProt O35449: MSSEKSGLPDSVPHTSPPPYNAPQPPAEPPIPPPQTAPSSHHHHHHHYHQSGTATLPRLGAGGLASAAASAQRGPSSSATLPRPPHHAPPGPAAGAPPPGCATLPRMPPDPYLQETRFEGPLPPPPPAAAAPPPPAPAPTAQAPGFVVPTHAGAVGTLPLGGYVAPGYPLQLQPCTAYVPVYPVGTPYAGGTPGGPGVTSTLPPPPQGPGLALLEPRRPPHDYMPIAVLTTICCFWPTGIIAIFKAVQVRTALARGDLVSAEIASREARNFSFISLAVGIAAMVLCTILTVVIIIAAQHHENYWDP
UniProt A2ANU3: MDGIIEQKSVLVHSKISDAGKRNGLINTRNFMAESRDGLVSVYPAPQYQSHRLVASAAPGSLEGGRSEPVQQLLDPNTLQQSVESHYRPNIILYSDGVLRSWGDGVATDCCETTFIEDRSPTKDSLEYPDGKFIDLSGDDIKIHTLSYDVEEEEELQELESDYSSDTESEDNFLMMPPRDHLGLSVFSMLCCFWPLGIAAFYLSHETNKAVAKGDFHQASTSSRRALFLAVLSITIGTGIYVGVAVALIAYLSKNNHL
UniProt P19492, residues 23-888: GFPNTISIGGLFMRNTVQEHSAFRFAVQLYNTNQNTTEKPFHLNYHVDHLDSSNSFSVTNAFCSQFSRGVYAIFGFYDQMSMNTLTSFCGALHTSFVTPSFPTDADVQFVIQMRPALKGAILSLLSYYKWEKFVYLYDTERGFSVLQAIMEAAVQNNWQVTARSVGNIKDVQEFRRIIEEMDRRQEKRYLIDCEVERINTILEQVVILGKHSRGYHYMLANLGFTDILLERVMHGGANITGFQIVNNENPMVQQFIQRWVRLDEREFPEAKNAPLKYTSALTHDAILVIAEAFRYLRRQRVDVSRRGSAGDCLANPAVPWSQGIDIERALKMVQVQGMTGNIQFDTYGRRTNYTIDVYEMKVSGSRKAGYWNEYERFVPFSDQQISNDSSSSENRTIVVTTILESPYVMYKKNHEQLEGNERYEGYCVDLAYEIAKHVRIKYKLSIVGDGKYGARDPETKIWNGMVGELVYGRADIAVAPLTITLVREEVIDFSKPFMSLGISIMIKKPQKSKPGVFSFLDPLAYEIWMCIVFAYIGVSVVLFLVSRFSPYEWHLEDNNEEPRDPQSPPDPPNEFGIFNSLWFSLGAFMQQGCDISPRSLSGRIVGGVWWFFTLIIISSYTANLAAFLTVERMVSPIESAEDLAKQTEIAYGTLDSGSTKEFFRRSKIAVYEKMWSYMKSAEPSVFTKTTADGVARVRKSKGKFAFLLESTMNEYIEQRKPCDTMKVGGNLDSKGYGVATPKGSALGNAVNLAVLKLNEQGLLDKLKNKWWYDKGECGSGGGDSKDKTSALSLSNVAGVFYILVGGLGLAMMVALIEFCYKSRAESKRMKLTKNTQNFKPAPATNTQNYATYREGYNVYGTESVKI
UniProt P19491, residues 22-883: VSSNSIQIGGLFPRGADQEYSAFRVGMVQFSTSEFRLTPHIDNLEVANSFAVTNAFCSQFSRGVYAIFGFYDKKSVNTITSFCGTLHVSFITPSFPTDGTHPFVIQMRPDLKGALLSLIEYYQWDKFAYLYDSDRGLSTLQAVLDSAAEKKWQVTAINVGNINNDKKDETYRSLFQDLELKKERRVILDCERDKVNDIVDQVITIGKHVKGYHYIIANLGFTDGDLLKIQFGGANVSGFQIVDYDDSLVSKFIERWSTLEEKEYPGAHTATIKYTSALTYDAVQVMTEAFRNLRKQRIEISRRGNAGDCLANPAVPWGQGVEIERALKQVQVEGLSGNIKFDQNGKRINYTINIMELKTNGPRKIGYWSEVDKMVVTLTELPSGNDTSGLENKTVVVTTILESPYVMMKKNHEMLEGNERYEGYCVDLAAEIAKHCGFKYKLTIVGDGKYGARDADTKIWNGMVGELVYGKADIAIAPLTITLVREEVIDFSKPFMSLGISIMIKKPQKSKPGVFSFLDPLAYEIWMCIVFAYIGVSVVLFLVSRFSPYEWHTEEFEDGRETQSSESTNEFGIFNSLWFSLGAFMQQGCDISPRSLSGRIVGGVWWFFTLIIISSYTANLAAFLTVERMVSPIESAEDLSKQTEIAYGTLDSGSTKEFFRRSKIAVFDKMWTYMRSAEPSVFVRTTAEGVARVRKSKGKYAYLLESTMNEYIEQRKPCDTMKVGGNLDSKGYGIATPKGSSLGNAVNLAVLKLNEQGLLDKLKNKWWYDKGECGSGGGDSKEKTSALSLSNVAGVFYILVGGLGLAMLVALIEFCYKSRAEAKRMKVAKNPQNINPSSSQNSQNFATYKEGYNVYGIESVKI
UniProt P19493, residues 21-902: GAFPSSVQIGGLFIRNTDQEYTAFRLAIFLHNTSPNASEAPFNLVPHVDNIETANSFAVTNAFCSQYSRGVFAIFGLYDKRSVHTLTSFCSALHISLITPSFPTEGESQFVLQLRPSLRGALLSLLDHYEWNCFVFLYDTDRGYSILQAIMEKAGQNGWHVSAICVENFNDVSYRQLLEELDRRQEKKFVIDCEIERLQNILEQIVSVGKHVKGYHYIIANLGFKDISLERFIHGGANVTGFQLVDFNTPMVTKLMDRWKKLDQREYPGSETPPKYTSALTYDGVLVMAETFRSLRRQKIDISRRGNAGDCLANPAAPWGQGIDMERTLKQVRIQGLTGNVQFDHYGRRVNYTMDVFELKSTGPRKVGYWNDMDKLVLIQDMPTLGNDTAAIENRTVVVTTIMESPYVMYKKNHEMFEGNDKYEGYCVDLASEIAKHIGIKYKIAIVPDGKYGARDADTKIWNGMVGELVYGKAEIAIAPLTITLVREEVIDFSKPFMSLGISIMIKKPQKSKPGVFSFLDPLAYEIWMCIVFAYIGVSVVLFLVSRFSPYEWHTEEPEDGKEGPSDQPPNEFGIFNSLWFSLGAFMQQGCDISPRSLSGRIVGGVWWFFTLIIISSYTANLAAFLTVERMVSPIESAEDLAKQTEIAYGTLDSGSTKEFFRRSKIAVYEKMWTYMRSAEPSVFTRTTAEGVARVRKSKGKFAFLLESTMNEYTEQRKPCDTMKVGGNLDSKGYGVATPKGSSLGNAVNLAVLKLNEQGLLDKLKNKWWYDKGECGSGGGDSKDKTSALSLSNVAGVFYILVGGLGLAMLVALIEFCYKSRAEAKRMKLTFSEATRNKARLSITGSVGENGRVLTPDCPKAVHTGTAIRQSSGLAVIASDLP

Key:
[1] = target: HA-PRRT1 (proline-rich transmembrane protein 1, HA tag at the N-terminus) (mouse) (UniProt O35449); experiment: co-IP; anti-HA antibody on lysates of co-transfected HEK293 cells; lysis buffer 150 mM NaCl, 20 mM Hepes pH 7.4, 0.1 mM EDTA, 2 mM CaCl2, 2 mM MgCl2, 1% Triton-X100; antibody overnight at 4°C, protein A or G agarose; immunoblot with anti-Flag / anti-HA
[2] = target: T1, GFP-tagged PRRT2 (mouse) (UniProt E9PUL5); experiment: co-IP; lysates of HEK293 cells expressing GFP-tagged dispanin family members and AMPAR subunits (Supplementary Figure 1); antibody of the immunoprecipitation not given
T1 sequence: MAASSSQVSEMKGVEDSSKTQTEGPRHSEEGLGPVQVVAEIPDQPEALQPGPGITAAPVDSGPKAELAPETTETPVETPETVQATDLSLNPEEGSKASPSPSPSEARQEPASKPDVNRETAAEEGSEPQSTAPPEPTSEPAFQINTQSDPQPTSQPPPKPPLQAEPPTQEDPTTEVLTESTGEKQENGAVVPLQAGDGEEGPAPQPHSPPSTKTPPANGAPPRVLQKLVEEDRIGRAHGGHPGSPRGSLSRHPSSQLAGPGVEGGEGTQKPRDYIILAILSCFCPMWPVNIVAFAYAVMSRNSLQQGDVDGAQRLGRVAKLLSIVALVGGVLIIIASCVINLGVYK

[3] = target: GFP-PRRT1 full-length (FL) (mouse) (UniProt O35449); experiment: as above
[4] = target: GFP-tagged DspC2 (SynDIG1) (mouse) (UniProt A2ANU3); experiment: as above
[5] = target: T2, GFP-tagged DspB1 (Tucs5) (mouse) (UniProt Q8C838); experiment: as above
T2 sequence: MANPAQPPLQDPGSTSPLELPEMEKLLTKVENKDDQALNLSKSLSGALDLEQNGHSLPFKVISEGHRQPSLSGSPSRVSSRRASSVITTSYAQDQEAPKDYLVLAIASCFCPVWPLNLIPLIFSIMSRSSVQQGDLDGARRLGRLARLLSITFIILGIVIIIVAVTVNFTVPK

| Substance | binding [1] | binding [2] | binding [3] | binding [4] | binding [5] |
| --- | --- | --- | --- | --- | --- |
| Flag-GluA3 (from UniProt P19492 23-888) (receptor) | – | no binding | – | binds | no binding |
| Flag-PP2B-Aβ (protein phosphatase 2B catalytic subunit Aβ) (from UniProt P48453 1-525) (enzyme) | binds | – | – | – | – |
| Flag-PP2B-Aα (protein phosphatase 2B catalytic subunit Aα) (from UniProt P63328 1-521) (enzyme) | binds | – | – | – | – |

Now from value to substance:

| binding [1] | binding [2] | binding [3] | binding [4] | binding [5] | Substance |
| --- | --- | --- | --- | --- | --- |
| binds | no binding | binds | binds | no binding | Flag-GluA2 (from UniProt P19491 22-883) (receptor) |
| binds | – | – | – | – | Flag-GluA4 (from UniProt P19493 21-902) (receptor) |
| no binding | – | – | – | – | Flag-Hippocalcin (Hlcn) (from UniProt P84075 1-193) |
